Test results: PubChem BioAssay (NCI)
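Tested at 5 concentrations; 48 h exposure; 96-well plates; endpoints linearly interpolated, else capped at highest concentration. GI50 = concentration required for 50% inhibition of growth. TGI denotes the concentration required for complete inhibition of growth.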

Test system: NCI-H322M lung
Experiment: inhibition of tumour cell growth, NCI panel, 48 h

| SMILES | GI50 | TGI |
| --- | --- | --- |
| COc1ccc(-c2nc3cc(C)ccc3n2CC(=O)N=Nc2c(O)[nH]c3ccc(OC)cc23)cc1 | 3.8 µM | 15 µM |
| Cn1cc(-c2cc(N)n3nc(-c4c[nH]c5ccccc45)cc3n2)c2cc(Br)cnc21 | 2.86 µM | 13.6 µM |
